Results taken from US20260209325A1, “SELECTIVE AND POTENT INHIBITORY ANTIBODIES OF MYOSTATIN ACTIVATION” (SCHOLAR ROCK, INC., priority 2022, published 2026).
Where a chain is given by its changes, count along the chain named. Entries after “also recorded” stand apart in the source; their conditions may differ. Each block holds one molecule with its values, some of them ahead of it.

How the values were obtained:
[1] = terminal antibody exposure in serum, dexamethasone study; assay type: in vivo, mouse; conditions: serum of terminal bleed, dexamethasone-treated mice
Description: In a third experiment, antibody doses ranging from 0.3 mg/kg to 10 mg/kg were compared for their effectiveness in attenuating dexamethasone-induced atrophy. C57BL6 male mice (n=8) at 13-14 weeks of age were given normal drinking water or water containing dexamethasone at a concentration of 2.5 mg/kg to induce atrophy. Mice were dosed at day 1 and day 7 with vehicle (PBS), human IgG control (“hIgG”) or different doses of the test antibodies, as shown in Table 14 below. qNMR was used to measure muscle mass at days −1, 6 and 13. At day 14 the study ended, serum was collected and changes in body composition (qNMR), left and right gastrocnemius weight, and left and right quadriceps weight were determined. Circulating myostatin was measured in the serum of a terminal bleed taken at day 14. Statistical analysis was performed by ANOVA (Dunnett's multiple comparison test).
Antibody exposure and circulating total myostatin levels were measured in the serum collected from the terminal bleeds after treatment with Ab2, Ab130 and Ab109. The results are shown in Table 15 and Table 16 respectively.

[2] = dexamethasone-induced muscle atrophy mouse model; assay type: in vivo; conditions: for gastrocnemius muscle weight / quadriceps muscle weight: dexamethasone treated mice, 0.3, 1, 3 or 10 mg/kg; for gastrocnemius muscle weight: FIG. 7C; for quadriceps muscle weight: FIG. 7D; for preservation of body weight: antibody 0.3-10 mg/kg, FIG. 7A; for preservation of lean mass: FIG. 7B, compared with Ab2 at 10 mg/kg
Summary of the method: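 Male C57BL6 mice (n=8, 13-14 weeks) received dexamethasone in drinking water (2.5 mg/kg) for 14 days, with vehicle (PBS), human IgG or antibody (0.3 to 10 mg/kg) dosed on days 1 and 7. Lean mass was measured by qNMR; at day 14, gastrocnemius and quadriceps weights and serum myostatin were recorded. ANOVA with Dunnett's test.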

total myostatin [3] = assay: circulating total myostatin in serum by ELISA after acidification, dexamethasone study; assay type: in vivo, mouse; conditions: for total circulating myostatin in serum: dexamethasone study, terminal serum, FIG. 8; for total circulating (serum) myostatin levels: dexamethasone-treated or liraglutide-treated animals, FIGS. 15A-B; for Myostatin (circulating total myostatin levels): serum of terminal bleed, dexamethasone-treated mice; for accumulation of myostatin in serum of dosed subjects, compared with apitegromab: statement in description
Summary of the method: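 Serum acidified (pH ~2.5) to release antibody-bound myostatin and convert all forms to mature growth factor, then neutralized. Mature myostatin measured by sandwich ELISA with anti-mature-myostatin capture and labeled detection antibodies.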

[4] = terminal antibody exposure, liraglutide study (pro myostatin plate ELISA); assay type: in vivo, mouse; conditions: for Exposure (terminal antibody exposure): terminal serum, high fat diet mice; for terminal antibody exposure: liraglutide study, FIG. 11H
Description: Pro myostatin was bound to a Costar plate at a concentration of 2 μg/ml then incubated in blocking solution. The antibody of interest was then added and its ability to bind pro myostatin was detected by horseradish peroxidase labeled anti IgG and a tetramethylbenzidine chromogenic substrate. Antibody exposure was measured as binding to the pro myostatin.

total myostatin [5] = assay: total serum myostatin, liraglutide study; assay type: in vivo, mouse; conditions: for Myostatin (total serum myostatin): terminal bleed serum, acidified; for total serum myostatin concentrations: liraglutide study, terminal bleed
Description: Levels of the antibodies' exposure to myostatin in the serum was measured by assaying for total myostatin in the serum (Lakshman (2009) Cellular Endocrinol 302:26). Terminal bleed serum samples were acidified at low pH (~2.5) to dissociate the antibody from its ligand, thus converting all forms of myostatin to the active growth factor. The samples were then neutralized and assayed for mature growth factor.

human pro-myostatin = human pro-myostatin (Homo sapiens, UniProt O14793); assay: SEC-MALS binding stoichiometry; conditions: for Difference Observed vs. Predicted: < / > = observed below / above predicted
[6] = dose 0.3 mg/kg at day 1 and day 7
[7] = dose 1 mg/kg at day 1 and day 7
[8] = dose 3 mg/kg at day 1 and day 7
[9] = dose 10 mg/kg at day 1 and day 7
[10] = antibody 1 mg/kg/week + liraglutide 0.06 mg/kg q.d.
[11] = antibody 3 mg/kg/week + liraglutide 0.06 mg/kg q.d.
[12] = antibody 10 mg/kg/week + liraglutide 0.06 mg/kg q.d.
[13] = antibody 20 mg/kg/week + liraglutide 0.06 mg/kg q.d.

Observed Molecular Weight (human pro-myostatin; Fab:pro-myostatin complex): 158.6 kDa
Predicted Molecular Weight (human pro-myostatin; Fab:pro-myostatin complex of the concluded stoichiometry): 187.53 kDa
Difference Observed vs. Predicted (human pro-myostatin; Fab:pro-myostatin complex): <28.93 kDa
Stoichiometry (Fab:pro-myostatin) (human pro-myostatin; concluded stoichiometry, Fab fragment): 2 to 1
Stoichiometry (mAb:pro-myostatin) (human pro-myostatin; concluded stoichiometry, full-length mAb): 1 to 2
Observed Molecular Weight (human pro-myostatin; mAb:pro-myostatin complex): 311.4 kDa
Predicted Molecular Weight (human pro-myostatin; mAb:pro-myostatin complex of the concluded stoichiometry): 317.3 kDa
Difference Observed vs. Predicted (human pro-myostatin; mAb:pro-myostatin complex): <5.9 kDa
B1: Ab109: anti-pro/latent myostatin antibody; CDR sequences in Table 2d (antibody)
heavy: EVQLVESGGGLVQPGGSLRLSCAASGFTFSSYGMSWVRQAPGKGLELVASFTGSGGTYYPDSVKGRFTISRDNAKNSLYLQMNSLRAEDTAVYYCARDLLIRFLEWSHYYGMDVWGQGTTVTVSSASTKGPSVFPLAPCSRSTSESTAALGCLVKDYFPEPVTVSWNSGALTSGVHTFPAVLQSSGLYSLSSVVTVPSSSLGTKTYTCNVDHKPSNTKVDKRV[human IgG4 Fc with S228P (EU numbers) left out]
light: DIVMTQSPLSLPVTPGEPASISCRSSQSLLHSSGHNFLHWYLQKPGQSPQLLIYEVSNRVSGVPDRFSGSGSGTDFTLKISRVEAEDVGVYYCMQQTQYPPTFGGGTKVEIKRTVAAPSVFIFPPSDEQLKSGTASVVCLLNNFYPREAKVQWKVDNALQSGNSQESVTEQDSKDSTYSLSSTLTLSKADYEKHKVYACEVTHQGLSSPVTKSFNRGEC
Exposure (terminal antibody exposure) [1, 6]: 2.8 µg/mL
Exposure (terminal antibody exposure) [1, 7]: 104.9 µg/mL
Exposure (terminal antibody exposure) [1, 8]: 67.3 µg/mL
Exposure (terminal antibody exposure) [1, 9]: 470.2 µg/mL
prevention of weight loss ([2]; dexamethasone treated mice, 1 mg/kg dose, FIG. 10A): equally as effective as the 10 mg/kg dose of Ab 2
gastrocnemius muscle weight [2]: more efficacy at all four doses as compared to Ab2 at 3 mg/kg
quadriceps muscle weight [2]: more efficacy at all four doses as compared to Ab2 at 3 mg/kg
maintenance of body weight (percent change from baseline) ([2]; dexamethasone treated mice, antibody 3 mg/kg/day, FIG. 6A, 9A): to a greater extent than Ab2
preservation of lean mass by qNMR ([2]; dexamethasone treated mice, antibody 3 mg/kg/day, FIG. 6B, 9B): to a greater degree than the 10 mg/kg/day Ab2 treatment
preservation of gastrocnemius weight ([2]; dexamethasone treated mice, antibody 3 mg/kg/day, FIG. 6C, 9C): highly effective in preserving gastrocnemius weight
preservation of body weight ([2]; dexamethasone treated mice): efficacious in preserving body weight; also recorded: improved efficacy compared to Ab2 at 10, 3, and 1 mg/kg
body weight ([2]; dexamethasone treated mice, fourth experiment, FIG. 10A): prevented dexamethasone-induced weight loss
lean mass by qNMR ([2]; dexamethasone treated mice, fourth experiment, FIG. 10B): attenuated the loss of lean mass; also recorded: greater efficacy at both 3 mg/kg and 10 mg/kg compared to either Ab2 or Ab133
preservation of lean mass ([2]; dexamethasone treated mice): greater efficacy in preserving lean mass than Ab2
preservation of quadriceps weight ([2]; dexamethasone treated mice, FIG. 9D): highly effective in preserving quadriceps weight
total circulating myostatin in serum (total myostatin [3]): lower levels of total circulating myostatin as compared to Ab2 treatment
total circulating (serum) myostatin levels (total myostatin [3]): decrease in serum myostatin
Myostatin (circulating total myostatin levels) (total myostatin [3]; dose 0.3 mg/kg): 159.6 ng/mL
Myostatin (circulating total myostatin levels) (total myostatin [3]; dose 1 mg/kg): 45.7 ng/mL
Myostatin (circulating total myostatin levels) (total myostatin [3]; dose 3 mg/kg): 48.4 ng/mL
Myostatin (circulating total myostatin levels) (total myostatin [3]; dose 10 mg/kg): BLOQ
accumulation of myostatin in serum of dosed subjects, compared with apitegromab (total myostatin [3]): little or no accumulation of total myostatin
Exposure (terminal antibody exposure) [4, 10]: 26.9 ng/mL
Exposure (terminal antibody exposure) [4, 11]: 159.2 ng/mL
Exposure (terminal antibody exposure) [4, 12]: 709.2 ng/mL
Exposure (terminal antibody exposure) [4, 13]: 1435.5 ng/mL
terminal antibody exposure [4]: higher exposure to their pro/latent myostatin ligand than Ab2
Myostatin (total serum myostatin) (total myostatin [5]; [10]): 12.2 ng/mL
Myostatin (total serum myostatin) (total myostatin [5]; [11]): 4.7 ng/mL
Myostatin (total serum myostatin) (total myostatin [5]; [12]): 5.6 ng/mL
Myostatin (total serum myostatin) (total myostatin [5]; [13]): 4.5 ng/mL
total serum myostatin concentrations (total myostatin [5]): reduced total serum myostatin concentrations compared to Ab2

binding stoichiometry mAb:pro-myostatin (human pro-myostatin; full-length mAb): 2:1 complex and a 1:2
B2: Ab130: anti-pro/latent myostatin antibody; CDR sequences in Table 2d (antibody)
heavy: EVQLVESGGGLVQPGGSLRLSCAASGFTFTSYGMSWVRQAPGKGLELVASITGSGGETYYPDSVKGRFTISRDNAKNSLYLQMNSLRAEDTAVYYCARDLLVRFLEWSHYYGMDVWGQGTTVTVSSASTKGPSVFPLAPCSRSTSESTAALGCLVKDYFPEPVTVSWNSGALTSGVHTFPAVLQSSGLYSLSSVVTVPSSSLGTKTYTCNVDHKPSNTKVDKRV[human IgG4 Fc with S228P (EU numbers) left out]
light: B1 light with V56T, V60A, S61P, V63I, M94Q, Q96A, Y99F, P101R, T102P
Exposure (terminal antibody exposure) [1, 6]: 1.2 µg/mL
Exposure (terminal antibody exposure) [1, 7]: 4.7 µg/mL
Exposure (terminal antibody exposure) [1, 8]: 93.1 µg/mL
Exposure (terminal antibody exposure) [1, 9]: 488.4 µg/mL
gastrocnemius muscle weight [2]: more efficacy at 3 mg/kg than both doses of Ab2
quadriceps muscle weight [2]: more efficacy at 3 mg/kg than both doses of Ab2
preservation of body weight ([2]; dexamethasone treated mice): efficacious in preserving body weight
preservation of lean mass ([2]; dexamethasone treated mice): greater efficacy in preserving lean mass than Ab2
total circulating myostatin in serum (total myostatin [3]): lower levels of total circulating myostatin as compared to Ab2 treatment
total circulating (serum) myostatin levels (total myostatin [3]): increase in serum myostatin levels
Myostatin (circulating total myostatin levels) (total myostatin [3]; dose 0.3 mg/kg): 473.8 ng/mL
Myostatin (circulating total myostatin levels) (total myostatin [3]; dose 1 mg/kg): 567.3 ng/mL
Myostatin (circulating total myostatin levels) (total myostatin [3]; dose 3 mg/kg): 585.6 ng/mL
Myostatin (circulating total myostatin levels) (total myostatin [3]; dose 10 mg/kg): 325.2 ng/mL
accumulation of myostatin in serum of dosed subjects, compared with apitegromab (total myostatin [3]): reduced accumulation of circulating latent myostatin
Exposure (terminal antibody exposure) [4, 10]: 21.6 ng/mL
Exposure (terminal antibody exposure) [4, 11]: 96.7 ng/mL
Exposure (terminal antibody exposure) [4, 12]: 599.0 ng/mL
Exposure (terminal antibody exposure) [4, 13]: 1418.2 ng/mL
terminal antibody exposure [4]: higher exposure to their pro/latent myostatin ligand than Ab2
Myostatin (total serum myostatin) (total myostatin [5]; [10]): 52.9 ng/mL
Myostatin (total serum myostatin) (total myostatin [5]; [11]): 41.5 ng/mL
Myostatin (total serum myostatin) (total myostatin [5]; [12]): 41.0 ng/mL
Myostatin (total serum myostatin) (total myostatin [5]; [13]): 42.4 ng/mL
total serum myostatin concentrations (total myostatin [5]): reduced total serum myostatin concentrations compared to Ab2
